This list was built around the results that the source calls inconclusive (neither active nor inactive); the mix of calls is not that of the screen. Calls of active or inactive are those of the source.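 The calls were made as follows: active = viability at or under a set limit in both replicates, limit being median viability minus 3 SD (cut at about 48% in these data, passing the limit was not always enough); inconclusive = at or under the limit in just one replicate; inactive = at or above the limit in both replicates.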
Experiment: H69AR cell proliferation blockers – human, duplicate replicates, primary screen (AID 580);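 also: 100% = mean luminescence of untreated wells and 0% = no signal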
Details: H69AR lung tumor cells viability, ATP luminescence, 72 h; at 10 µM; hits give low values

Row | Structure (SMILES) | viability
1 | Cc1ccc(Cl)cc1N1CCN(C(=O)c2cn(C)c(=O)c3c2c2ccccc2n3C)CC1 | active: 3.07%
2 | C=C(CC)C(=O)c1ccc(OCC(=O)O)c(Cl)c1Cl | inconclusive: 49.4%
3 | CCCc1cc(-n2ccnc2)n2c(nc3ccccc32)c1C#N | inconclusive: 45.8%
4 | CC[C@]1(O)C[C@@H]2CN(CCc3c([nH]c4ccccc34)[C@@](C(=O)OC)(c3cc4c(cc3OC)N(C)[C@H]3[C@@](O)(C(=O)OC)[C@H](OC(C)=O)[C@]5(CC)C=CCN6CC[C@]43[C@@H]65)C2)C1 | inconclusive: 17.5%
5 | Clc1ccc(OCc2nnc(SCCN3CCCCC3)n2Cc2ccco2)cc1 | inconclusive: 38.6%
6 | COc1cc2nc(N3CCN(C(=O)c4ccco4)CC3)nc(N)c2cc1OC | inconclusive: 15.4%
